# The campaign covered roughly 43,000 compounds. About 200 (0.47%) were called active. Inconclusive results, whose numbers are uncertain, are shown with a selection of clear calls. Calls follow the shape of the dose curve; as a rule, active = well fitted cell-killing curve with a large enough effect; inconclusive = small, poorly fitted or top-dose-only effect, or effect the other way; inactive = flat fitted curve, though single readings scatter. Potencies beside an inconclusive call are fits to weak or partial responses and may not hold up.
# Assay: Cell viability qHTS assay in S16 Pmp22-F2sN cells; also: nearly all actives have a fitted effect of over 65% in size
# Settings: S16 Pmp22-F2sN Schwann cells viability, CellTiter-Glo, 24 h; series mostly up to 57.5 µM
# Summary of the method: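 Used to flag compounds lowering reporter output through toxicity, this quantitative HTS measures ATP-based CellTiter-Glo luminescence in S16 Pmp22-F2sN Schwann cells after 24 h compound exposure at 37C.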
# Potency is read from the fitted curve at half-maximal effect; tags tell the direction and shape of the fitted curve.
row,SMILES,Potency
1,CC(=O)N1CCCc2cc(S(=O)(=O)NCc3ccc(N(C)C)cc3)ccc21,"inconclusive: 39.8 µM [cytotoxic, single point]"
2,CCOc1ccc(Nc2c(S(=O)(=O)c3ccc(C)cc3)cnc3ccc(OC)cc23)cc1,"inconclusive: 3.98 µM [cytotoxic, partial curve, poor fit]"
3,CCc1ccc(S(=O)(=O)Nc2cc(-c3cn4ccccc4n3)ccc2C)cc1,inactive
4,COc1cc(OC)cc(C(=O)NCc2ccc3c(c2)CCN3C(=O)c2ccccc2)c1,"inconclusive: 3.55 µM [cytotoxic, full curve, poor fit]"
5,CNC(=O)C1CCN(Cc2cc3ccccc3n2Cc2ccccc2C)CC1,inactive
6,CCCCNC(=O)Cn1c(=O)cc(C)c2c(C)nn(-c3ccc(CC)cc3)c21,"inconclusive: 3.98 µM [cytotoxic, partial curve, poor fit]"
7,CCc1ccc(NC(=O)c2ccc3oc(=O)n(Cc4ccccc4)c3c2)cc1,"inconclusive: 39.8 µM [cytotoxic, single point]"
8,CN(C)S(=O)(=O)c1ccc2c(c1)N(CC(=O)NCc1cccc(Br)c1)C(=O)CS2,"inconclusive: 2.82 µM [cytotoxic, full curve, poor fit]"
9,Cc1cc2nc(-c3ccc(Cl)cc3)cc(C(F)(F)F)n2n1,"inconclusive: 20 µM [rising, partial curve, poor fit]"
10,Cc1ccc(-c2nnc(NC(=O)c3ccc4c(c3)OCCO4)o2)c(C)c1,inactive
11,COc1ccccc1-c1nnc2n(CCc3ccccc3)c(=O)c3ccccc3n12,"inconclusive: 2.51 µM [cytotoxic, full curve, poor fit]"
12,Cc1cccc(C(=O)Nc2ccc(-c3nc4cc(C(C)C)ccc4o3)cc2)c1,"inconclusive: 39.8 µM [cytotoxic, single point]"
13,COc1ccc(-c2c3c(nc4sc(C(=O)Nc5ccc(F)cc5)c(N)c24)CC(C)(C)CC3=O)cc1,"inconclusive: 5.62 µM [cytotoxic, full curve, poor fit]"
14,CC(C)(C)c1ccc(C(=O)NCC(c2cccs2)S(=O)(=O)c2ccc(F)cc2)cc1 (stereo not given),"inconclusive: 39.8 µM [cytotoxic, single point]"
15,Cc1ccc(CN2CCC(CNC(=O)c3cc4ccc5cccnc5c4[nH]3)CC2)cc1,"inconclusive: 35.5 µM [cytotoxic, single point]"
16,Cc1nc2nc(SCc3c(F)cccc3Cl)nn2c(C)c1Cc1ccccc1,"inconclusive: 31.6 µM [cytotoxic, single point]"
17,Cc1oc2ncn(C)c(=O)c2c1C(=O)Nc1ccccn1,"inconclusive: 0.126 µM [rising, full curve, poor fit]"
18,Cc1cc(-n2c(C)nc3ccccc3c2=O)ccc1NC(=O)c1ccc(C)c([N+](=O)[O-])c1,"inconclusive: 31.6 µM [cytotoxic, single point]"
19,CCCN1C(=O)c2[nH]nc(-c3ccccc3O)c2C1c1cccc(OCc2ccccc2)c1 (stereo not given),"inconclusive: 22.4 µM [cytotoxic, single point]"
20,CC(C)(C)NC(=O)c1cnn(-c2ccccc2)c1C1CCN(C(=O)OC(C)(C)C)CC1,inactive

row,SMILES,Potency
1,O=C(Cn1ncc2c3ccccc3n(Cc3ccccc3F)c2c1=O)NC1CCCCCC1,"inconclusive: 39.8 µM [cytotoxic, single point]"
2,Cc1nn(-c2ccccc2)c2c1N(CCCC(=O)NCc1ccc(Cl)cc1)C(=O)CS2,"inconclusive: 8.91 µM [rising, partial curve, poor fit]"
3,CCOc1ccc(NC(=O)Cc2ccc(NC(=O)N3CCCCc4ccccc43)cc2)cc1,active: 14.1 µM
4,COc1cccc(NC(=O)C(=O)NCC(c2ccc3c(c2)OCO3)N2CCOCC2)c1 (stereo not given),inactive
5,COC(=O)c1c(NC(=O)COc2ccccc2Cl)sc2c1CCC(C(C)(C)C)C2 (stereo not given),"inconclusive: 39.8 µM [rising, single point]"
6,COc1cc(/C=C(\C#N)c2nc3ccc(C)cc3[nH]2)ccc1OC(C)C,inactive
7,Cc1nc2cccnc2n1C1CCN(S(=O)(=O)c2ccc(C(C)C)cc2)CC1,"inconclusive: 39.8 µM [cytotoxic, single point]"
8,CCc1nn(CC(=O)NCCN(CC)CC)c(=O)c2cc3occc3n12,"inconclusive: 8.91 µM [rising, full curve, poor fit]"
9,Cc1ccc(NC(=O)Nc2ccc3nc(N4CCN(C)CC4)cc(C)c3c2)cc1C,"inconclusive: 39.8 µM [cytotoxic, single point]"
10,COc1cccc(CN2CCc3nc(N4CCN(C)CC4)ncc3C2)c1,inactive
11,CCN1CCN(CCCNC(=O)c2ccc3c(c2)sc2nc(-c4ccc(C)cc4)cn23)CC1,"inconclusive: 28.2 µM [cytotoxic, single point]"
12,COc1ccccc1-c1ccnc2c(-c3ccc(Br)cc3)c(C)nn12,"inconclusive: 7.08 µM [rising, single point]"
13,CCc1ccc(Cn2c(CNS(=O)(=O)c3ccc(Cl)s3)nc3cccnc32)cc1,"inconclusive: 28.2 µM [cytotoxic, single point]"
14,COc1cc(-c2nc3cnccn3c2Nc2ccc(C(C)C)cc2)ccc1O,"inconclusive: 39.8 µM [cytotoxic, single point]"
15,Cc1csc2nc(-c3cccc(NC(=O)c4ccccc4F)c3)cn12,"inconclusive: 3.55 µM [rising, single point]"
16,Cc1nn2c(=O)cc(COC(=O)c3ccc(NC(=O)c4ccc(C(C)(C)C)cc4)cc3)nc2s1,inactive
17,COc1cc(Cl)c(NC(=O)CN(C)S(=O)(=O)c2ccc3[nH]c4c(c3c2)CCCC4)c(OC)c1,inactive
18,COc1cccc(CNC(=O)c2cccc(NC(=O)c3nsc4ccccc34)c2)c1,"inconclusive: 39.8 µM [cytotoxic, single point]"
19,CCOc1ccccc1NC(=O)c1nn(-c2ccc(OC)cc2)c(=O)c2c1c1ccccc1n2C,"inconclusive: 39.8 µM [cytotoxic, partial curve, poor fit]"
20,CC(C)(C)c1ccc(S(=O)(=O)N2CCC(c3ccncc3)CC2)cc1,"inconclusive: 25.1 µM [cytotoxic, partial curve, poor fit]"

# — PubChem BioAssay AID1508642 (National Center for Advancing Translational Sciences (NCATS), 2021)
